Some of the results follow.
system: PF3D7_0420300 AP2 domain 1 (GST-tagged); experiment: gcPBM binding intensity (ln(normalized median fluorescence intensity)); higher = stronger DNA binding
Method in brief: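 Using an Agilent 4 × 180k array, primer-extended double-stranded 36-bp intergenic genomic probes and negative controls were exposed for 1 h to GST-fused P. falciparum DNA-binding domains expressed in E. coli. Binding was carried out in 1× PBS with 1% milk, 0.2 mg/ml BSA, 0.5% salmon testes DNA and 0.03% Triton X-100, and protein was detected with Alexa488 anti-GST antibody and a 488 nm scan. Binding intensity is the highest Masliner-normalised natural-log median intensity across replicate spots of either probe orientation.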

| Sequence | gcPBM binding intensity (ln) |
| --- | --- |
| AAATAGAGAAATACAAGTACATACTAAACCAATCTA [XGTACX_site2780] | 9.39 |
| TATAATGTTGATAATAGTACGTATGAGTTCAAAAAA [XGTACX_site988] | 9.01 |
| AAAGGATATAATACCATACACACATTTATAAAATAA [CACACA_site1931] | 9.64 |
| ACTTTTATTCGCTTACGTACATATATTATATATTAT [XGTACX_site4459] | 9.82 |
| AAAAGAAAATATATGTGTACTAAAATATATATATAT [XGTACX_site3817] | 9.46 |
| TACCTACACTTTTGGAGTACAATTAAAAAAAAAAAA [XGTACX_site1403] | 8.88 |
| TTTAAAGTAATAAAGTGTACAAAAATAAATTCAGCT [XGTACX_site8651] | 9.46 |
| GTTTATTAAACATTAGTGCAATTTTAATCCATTCTA | 8.95 |
| TAAAATAAAAATATAGTGCACAGATTTTGATATTTT [GTGCAC_site9696] | 9.16 |
| CTTTGTGGTATAGATACACACTATATTAAGATGAAC [CACACA_site5215] | 9.15 |
| CACATTATGTATCATACACACAAATAGATATATAAC [CACACA_site6434] | 9.72 |
| TGAAGGTTTCAAAAACGTACAAAAAAAAATGTTAGT [XGTACX_site8803] | 9.27 |
| TTTTTTTTTTATGGTACACACACGCGTATGGTTGCA [CACACA_site1876] | 9.69 |
| TTTAGAAATAAATACACACATACATTTTTGTATACA [CACACA_site718] | 9.29 |
| ATAATAAATGATAGCACACATATGTACATAAATACA [CACACA_site4634] | 9.54 |
| AACATATAAAAATGTGCACACACACCCATATATATA [CACACA_site1525] | 9.97 |
| TATCTTAACAATTAGTGTACAGATAACCAATTAAAA [XGTACX_site3184] | 9 |
| AATTAATGGAAACAAGTCAAATGATCTTTATGCATA [TGCATGCA_negctrl_site540] | 9.13 |
| AAATTGTAGAAGCGTATTTCTCGAACTGGATGAATA [CACACA_negctrl_site1373] | 9.21 |
| TTTATATCGACTCTTCTTTATATAAGTTGTGATGTT [TGCATGCA_negctrl_site362] | 9.34 |
| TAAAGTGTAAAGAAGGTGCTCATTATTTATTTTTTT | 9.21 |
| AGTTTCCTTGAGAAAAGTACGTAATACTACATATAT [XGTACX_site818] | 9.15 |
| AAAAAAGAAACAAACACACATACATACAAACAAACA [CACACA_site142] | 10 |

| Sequence | gcPBM binding intensity (ln) |
| --- | --- |
| ATATGATATATTTTATGTACATATAAAACATATATA [XGTACX_site4297] | 9.13 |
| TTATACTTTTTTTCTTGGTGTAGAAAAAAAAGTTAG [CACACA_negctrl_site1207] | 8.81 |
| TTTATATTAGGTCTTGAACGATTTTCATCATTATTA [TGCATGCA_negctrl_site100] | 9.13 |
| AATAAATATATAAATACACACAAACATACAGATATA [CACACA_site6088] | 10 |
| TTTAAAAGATAAAGACTGCACTTTAAGCACACAAAT [GTGCAC_site9752] | 9.18 |
| AATTCCTATAATGAGAGTACGCATTAGAACAGTAGG [XGTACX_site5721] | 9.25 |
| TTGATAAAAAAAAAAAAATAAAAAAAAAATAAAAAA [XGTACX_negctrl_site480] | 8.95 |
| AAAAAAGTAAAAAGTGCATGTAAAATATAAGTATCT [TGCATGCA_site55] | 9.63 |
| TTTTTTTTTTATTTTGCACACTTCTAATTTAGTTGT [CACACA_site3429] | 9.32 |
| GTTATTCTTAATTTTTGTACACATTTTTATATTATT [XGTACX_site7227] | 9.76 |
| ATATATATGTATATGTGTACTTATATTTGTCATTTT [XGTACX_site1317] | 9.44 |
| GAACAAAAGGAATGTTGTACATAAAAAATGAAAAAT [XGTACX_site3929] | 9.33 |
| AAAAAAATTAAACACACACACACATATATATATATA [CACACA_site4718] | 10.1 |
| AAAATTTAATATAATGCACACATAAAAAAAAATTCA [CACACA_site8640] | 9.36 |
| TCCTGCCTCTCTTTGGTGCGTTGTAACCCTCGAGGA | 9.11 |
| ATATTAATATACATATGTACATATATATATATATAT [XGTACX_site7425] | 9.29 |
| TAAATTATTTATAAAGCACACAAGAAAAAATAAAAT [CACACA_site2132] | 9.68 |
| TAAAGGCAAACAAACACACACACATATATACATATA [CACACA_site2123] | 10.2 |
| CCAATACTGTTTAAATGTACAAGTAGGAGGTTAATT [XGTACX_site7260] | 9.41 |
| AAAAATTAACAAAAGGTGCAAACAAATAGTGGTTTT [GTGCAC_site9998] | 9.57 |
| ATTATAATTGCATATACACACAAAGGTTCATAACAA [CACACA_site7440] | 9.52 |
| ACATATATAAAATAATGTACATTTTTAAGAATGCGT [XGTACX_site7654] | 9.25 |
| ACAGTATTTCGAGATGGTACACATATATATATATAT [XGTACX_site6880] | 9.28 |

| Sequence | gcPBM binding intensity (ln) |
| --- | --- |
| AAAAAAAAAAAAAAAAGGGGGGGAGGGATTGAAAAA [CACACA_negctrl_site193] | 10 |
| AATGAGGATATATACACACATACATTAAAAAAATAT [CACACA_site1849] | 9.77 |
| ATGAGTTACATGGGAAAAATATATATATATATATAT [CACACA_negctrl_site579] | 9.19 |
| TTTAAAAGATAAAACACACATACTAATAAAAAACAA [CACACA_site2556] | 9.71 |
| TTGTATCCTTAATGCATGCACCAAATAACAAAAGTA | 9.05 |
| TTGTTGTATTATTTATGTACATATGTATATGTATAT [XGTACX_site1315] | 9.37 |
| TGATAAATATGGAGCACACACACATAAACATACATA [CACACA_site420] | 10.1 |
| GATGTGATGTATTTGGTATTTTTCGATGTTGGTAGG [CACACA_negctrl_site355] | 9.6 |
| TATTATATATCAAAATGTACATTAATTTGAGTAATT [XGTACX_site5434] | 9.02 |
| TGTTCAGTAGGGCACACACACAACAAAATAAAAAAA [CACACA_site378] | 9.79 |
| TTACCTCTTTGAAATATACACACTAATCATATCAAC [CACACA_site8778] | 9.35 |
| TTTTTGCTATTCTATTATATATATAATATATTTTAC [CACACA_negctrl_site262] | 9.46 |
| CTTTTTTCAAAACACACACACAAGAAAATATATATA [CACACA_site3109] | 9.92 |
| TTTTTTTTTTTTGTGCGTACATACCATTTTAATAAT [XGTACX_site2760] | 9.13 |
| GAGATTTATTTATGTGCACACTAGAACAATTGGATC [CACACA_site2090] | 9.45 |
| AAGACATTTTTTAAGGTGCTTTGGAAAAAGGAGTAT [GTGCAC_site9816] | 9.24 |
| ACAAGTAATTAAGAGTGTACATAACTATAAATCCAA [XGTACX_site5215] | 9.49 |
| TATAATAAAATATGTACACACATACACCCATATATA [CACACA_site4808] | 9.77 |
| GATATGATGAGATTGATATTCATAAGAGGATTAATG [GTGCAC_negctrl_site515] | 9.03 |
| TGTATGTATGTATTATTTGTTATTTTAATTTTTTTG [TGCATGCA_negctrl_site256] | 9.61 |
| AAAAATGATATGAGTTGTACATAAGTAAGAATTATT [XGTACX_site7089] | 9.4 |
| TAAAAACGATTTTTTGCACACACATAATAAGCAGAA [CACACA_site3870] | 9.81 |
| GGACAAGTTAAACGCACACAAATATATACCCCCATA [CACACA_site4996] | 9.9 |

| Sequence | gcPBM binding intensity (ln) |
| --- | --- |
| AAAGGGGAGATATGAACACACAAAAAAAAAATATAT [CACACA_site7378] | 9.58 |
| TATATATATTTTAAATGTACTTATAAATTACCACTT [XGTACX_site5673] | 9.09 |
| AAATAAAATTTTTGTTGTACTTATTTTTAGTATACT [XGTACX_site4254] | 9.24 |
| AATATTTACAGACATGCGCACACATAAATAAATAAT [CACACA_site8760] | 9.59 |
| AGAAAGGATATAAGCGTAGCTATATCATAAAAAATG [GTGCAC_negctrl_site332] | 9.06 |
| TAAATAAATTTGCACTGTACGCAAAAAAAAAAAAGA [XGTACX_site8781] | 9.29 |
| GTATATATATATTTATGTACTTACCTACATAATTAT [XGTACX_site4435] | 9.49 |
| TGAAAAAAAAAATGCACACGCATACATATAATATGT [CACACA_site641] | 9.41 |
| AAACATAAATATGAGAGTACAAAAAATATTATGAAT [XGTACX_site151] | 9.56 |
| ATCTCTTAAATTTTACGTACTTATTTTATCTTCTTA [XGTACX_site8877] | 9.66 |
| TTATAATATATTACAAGTTCATTCATATAATATGTT [CACACA_negctrl_site1695] | 9.12 |
| AATAAATACATACATACATGCATACATATATCTCAA [TGCATGCA_site1040] | 9.34 |
| AAAAATAAAATATATATATATATATATATATATATA [CACACA_negctrl_site58] | 8.95 |
| TATTTTTATATATATACACACTTACAGATATATATT [CACACA_site5905] | 9.4 |
| AATCCTTACAGACACACACACACGAATAAATAAAAA [CACACA_site480] | 10 |
| TATGTATTATCAAAAAGTACTAAAAAAAAATAATAA [XGTACX_site4703] | 9.19 |
| TATATATGTATATGTGTGCACCTTATTTCTTTTATT [GTGCAC_site9513] | 9.66 |
| TTATAATTTTTGAGCACACACAAGCATATATATATA [CACACA_site1798] | 9.38 |
| ATAAATGTTATGCATACACACTTTATACCTATTTAA [CACACA_site5967] | 9.41 |
| CCTTTTAAGAGTTGCACACGTACAAAAAAAAAAAAA [CACACA_site3492] | 9.01 |

— the supplement of paper PMC11417369
